The whole screen tested about 410,000 compounds, of which about 6,400 (1.6%) were called active. Inconclusive results, whose numbers are uncertain, are shown with a selection of clear calls. Calls follow the shape of the dose curve; as a rule, active = well fitted inhibition curve with a large enough effect; inconclusive = small, poorly fitted or top-dose-only effect; inactive = no such curve, though single readings can be large or run the other way. Potencies beside an inconclusive call are fits to weak or partial responses and may not hold up.
Biological target: Glucagon-like peptide 1 receptor (Homo sapiens) (UniProt P43220)
Sequence of UniProt P43220 (P43220 whole entry, looked up): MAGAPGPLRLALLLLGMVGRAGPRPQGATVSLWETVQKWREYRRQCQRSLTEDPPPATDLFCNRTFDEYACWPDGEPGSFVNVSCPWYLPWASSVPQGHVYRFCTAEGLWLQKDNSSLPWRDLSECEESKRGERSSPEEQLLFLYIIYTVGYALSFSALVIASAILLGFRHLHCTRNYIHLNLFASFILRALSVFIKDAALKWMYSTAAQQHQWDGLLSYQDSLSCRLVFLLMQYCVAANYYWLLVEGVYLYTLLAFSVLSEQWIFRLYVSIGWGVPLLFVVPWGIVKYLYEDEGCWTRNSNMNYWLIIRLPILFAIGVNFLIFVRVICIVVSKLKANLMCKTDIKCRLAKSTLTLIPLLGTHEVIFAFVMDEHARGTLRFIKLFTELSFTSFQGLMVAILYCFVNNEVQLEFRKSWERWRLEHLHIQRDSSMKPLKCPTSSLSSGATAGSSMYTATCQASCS
Experiment: qHTS of GLP-1 Receptor Inverse Agonists (Inhibition Mode); also: nearly all actives have a fitted effect of over 55% in size
Conditions: HEK293 GLP-1R CRE-luciferase, luminescence, 24 h, GLP-1R form is constitutively active; series mostly up to 38.3 µM
Summary of the method: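 Stable HEK293 clone (constitutively active GLP-1R + cAMP-response luciferase); 200 cells/uL plated, 12 h pre-culture, compound 24 hr, 37 deg C/5% CO2; detection reagent 12 min RT; luminescence.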
Potency is read from the fitted curve at half-maximal effect; tags tell the direction and shape of the fitted curve.

Potency, inconclusive:
CCSc1nnc(NC(=O)CCNS(=O)(=O)c2ccccc2F)s1 12.6 µM [inhibitor, single point]
CCc1ccc(-c2cc3c(=O)n(CC(=O)NCCN4CCCCC4C)nc(C)n3n2)cc1 (stereo unspecified) 3.55 µM [inhibitor, full curve, poor fit]
CC12CCC(=O)C=C1CCC1C2CCC2(C)C(c3csc(N)n3)CCC12 (stereo unspecified) 28.2 µM [inhibitor, partial curve, poor fit]
Cc1ccc(C(CNC(=O)Nc2ccccc2)N2CCN(C)CC2)cc1 (stereo unspecified) 31.6 µM [inhibitor, partial curve, poor fit]
CC(C)(C)C(=O)/C=c1\[nH]c(=O)/c(=C\c2ccc(F)cc2)s1 12.6 µM [inhibitor, partial curve, poor fit]
CCCCc1c(-c2ccccc2OC)ncn1CCc1ccccc1 28.2 µM [inhibitor, single point]
O=C(O)c1cccc(NC(=S)N/N=C/c2ccccn2)c1 10 µM [inhibitor, partial curve]
O/N=C/c1cc(Cl)ccc1OCc1ccccc1Cl 28.2 µM [inhibitor, single point]
Cc1cccc(C)c1C(=NCCN(C)C)c1ccccc1 28.2 µM [inhibitor, single point]
COc1cc(CN2CCN(C(O)(c3ccccc3)c3ccccc3)CC2)cc(OC)c1OC 7.94 µM [inhibitor, partial curve, poor fit]
CCc1ccc(CNC(=O)Cn2c(-c3cccs3)cc3cc(F)ccc32)cc1 7.08 µM [inhibitor, partial curve, poor fit]
OCC1(CCc2ccccc2)CCN(Cc2c(F)ccc(F)c2F)CC1 10 µM [inhibitor, partial curve, poor fit]
COc1ccc2nc(NC(=O)CSC3=NCCS3)sc2c1 28.2 µM [inhibitor, single point]
O=S1(=O)C=C(SCc2ccc(Cl)c(Cl)c2)Nc2ccccc21 10 µM [inhibitor, partial curve, poor fit]
Cc1ccc(C(C)C)c(OCCN2CCc3ccccc3C2)c1 28.2 µM [inhibitor, single point]
COc1ccc(C(=O)O/N=C(\N)Cc2cccs2)cc1OC 22.4 µM [inhibitor, single point]
O=C(CCn1c(=O)sc2ccccc21)Nc1nc2ccccc2s1 11.2 µM [inhibitor, partial curve, poor fit]
O=C(Nc1cc(Cl)cc(Cl)c1)c1ccc(F)c(S(=O)(=O)NC2CCCCC2)c1 8.91 µM [inhibitor, partial curve, poor fit]
CCC(CO)Oc1cc(NCc2cccc(Cl)c2)c2ncn(C(C)C)c2c1 (stereo unspecified) 28.2 µM [inhibitor, single point]
NC(=S)NN=C(c1ccc(F)cc1)C1CC1 20 µM [inhibitor, single point]
COc1cccc(-c2cc(C(=O)Nc3ccn(Cc4ccc(C)cc4)n3)no2)c1 7.94 µM [inhibitor, partial curve, poor fit]
CC1(C)C2CCC(C2)C1(C)NC(=O)CNCc1cccs1 (stereo unspecified) 28.2 µM [inhibitor, single point]
CCOC(=O)c1ccc2c(c1)N(Cc1ccccc1)C(=O)c1ccccc1S2 10 µM [inhibitor, partial curve, poor fit]
CCC1CN(C(=O)N2CCC(C(=O)NCCc3ccccc3OC)CC2)c2ccccc2O1 (stereo unspecified) 11.2 µM [inhibitor, single point]
O=C(NNC(=O)C12CC3CC(CC(C3)C1)C2)c1ccccc1O 5.62 µM [inhibitor, partial curve, poor fit]
CC1(Cc2cc(Cl)ccc2C(F)(F)F)C(=O)Nc2cc(C(F)(F)F)ccc21 (stereo unspecified) 11.2 µM [inhibitor, partial curve, poor fit]
COC(=O)c1ccc2nc(-c3ccc(C)cc3)c(Cc3cccc(Cl)c3)n2c1 31.6 µM [inhibitor, single point]
O=[N+]([O-])c1cccc(C(=S)N2CCN(c3ccc(F)cc3)CC2)c1 11.2 µM [inhibitor, single point]
O=C(NC1CCCc2ccccc21)c1cccc(F)c1 (stereo unspecified) 28.2 µM [inhibitor, single point]
COc1ccc2cc(S(=O)(=O)N3CCCC(C)C3)ccc2c1 (stereo unspecified) 28.2 µM [inhibitor, single point]
Cc1nc(C)c(-c2ccc(SCc3ccc(Cl)cc3)nn2)s1 12.6 µM [inhibitor, single point]
O=C(NCC1COc2ccccc2O1)c1cc(S(=O)(=O)N2CCOCC2)c(Cl)cc1Cl (stereo unspecified) 8.91 µM [inhibitor, single point]
O=C(NCCSC1CCCCC1)c1ccccc1 20 µM [inhibitor, single point]
CC(C)NC(=O)c1onc(CSc2ccc(Cl)cc2)c1C(=O)O 31.6 µM [inhibitor, single point]
O=C(CNc1cccc(C(F)(F)F)c1)N/N=C/c1cccc(Br)c1 10 µM [inhibitor, partial curve]
Cc1ccc(OCC(=O)N(C)CC(=O)Nc2ccc(Cl)c(C(F)(F)F)c2)c([N+](=O)[O-])n1 28.2 µM [inhibitor, single point]
Cc1ccc(Cl)cc1NC1=NC(=S)N(C(C)C)C12CCCCC2 1 µM [inhibitor, full curve, poor fit]
CC1CCC(NC(=O)c2ccc(CS(=O)(=O)c3c(Cl)cccc3Cl)o2)CC1 (stereo unspecified) 28.2 µM [inhibitor, single point]
COc1ccc(CCNC(=O)c2ccc3c(Cl)c4c(nc3c2)CCCC4)c(OC)c1 7.94 µM [inhibitor, partial curve, poor fit]
Cc1onc(-c2ccccc2)c1C(=O)N(Cc1ccco1)Cc1cccs1 7.08 µM [inhibitor, partial curve, poor fit]
CS(=O)(=O)N1CCCc2cc(C(=O)Nc3cccc(C(F)(F)F)c3)ccc21 10 µM [inhibitor, partial curve]
COC(=O)c1cc(=O)n(Cc2ccco2)c(=Nc2ccc(F)cc2)s1 6.31 µM [inhibitor, partial curve, poor fit]
C[C@H]1CN([C@@H](C)CO)C(=O)CCCn2nncc2CO[C@@H]1CN(C)Cc1ccc(-c2ccccc2)cc1 28.2 µM [inhibitor, single point]
OC(COCC1COc2ccccc2O1)CN1CCN(c2ccccc2)CC1 (stereo unspecified) 0.355 µM [inhibitor, full curve, poor fit]
CC1(C)CC(=O)c2sc(NC(=O)Cc3cccs3)nc2C1 28.2 µM [inhibitor, single point]
COc1ccccc1CNc1cc(CSc2ccc(Cl)cc2)nc(C)n1 11.2 µM [inhibitor, partial curve, poor fit]
CCN(CC)c1ccc(NC(=O)c2cc(Cl)ccc2OC)cc1 14.1 µM [inhibitor, partial curve, poor fit]

Potency, active:
COc1cc(-c2nc(-c3cccc(Cl)c3)c(-c3ccccc3)[nH]2)cc(OC)c1OC 3.55 µM

Potency, inactive:
CC(C)(C)c1ccc(C(=O)O/N=C(\N)c2ccccn2)cc1
Nc1nonc1C(=O)NCCNCc1ccc(Cl)c(Cl)c1
COc1ccc(-c2cc(C(C)=O)c(C)n2CCC(=O)Nc2ccc(C(F)(F)F)cc2)cc1
Cc1ccc(C(C)C)c(OCc2ccc(C(=O)N/N=C/c3ccc(C(=O)O)cc3)cc2)c1
COc1ccc(-n2c(=O)c3c(c4cc(OC)ccc4n3C)n(Cc3ccc(F)cc3Cl)c2=O)cc1
C=CCSC1=C(C#N)C(c2ccccc2C)CC(=O)N1 (stereo unspecified)
O=C(Nc1ccc(C(=O)NCCCN2CCN(c3ccc(F)cc3)CC2)cc1)C1=CSCCO1
O=C(Nc1cnc(N2CCC(N3CCCCC3)CC2)c(C(=O)O)c1)c1ccc(Br)cc1
CC(C)CCn1c(=O)c2sccc2n2c(CCCC(=O)NC3CCC(C)CC3)nnc12 (stereo unspecified)
CCN1CCN(C(=O)c2ccc3c(=O)n(Cc4ccccc4OC)c(=S)[nH]c3c2)CC1
O=C(NNC1=NS(=O)(=O)c2ccccc21)c1ccccc1
Nc1ccccc1Sc1ccccc1[N+](=O)[O-]
O=c1c2cn[nH]c2[nH]c(=S)n1-c1ccccc1F
CC(=O)c1ccc(N2CCN(c3ncnc4onc(C)c34)CC2)cc1
CCOC(=O)c1ccc2c(c1)nc(C1CCN(S(=O)(=O)c3cccs3)CC1)n2CC
CNC(=O)c1cccn1-c1ccsc1C(=O)OC
COc1ccc(C2C(=O)N(C3CCCCCC3)CC(=O)N2CCC2=CCCCC2)cc1 (stereo unspecified)
Cc1ccc(N2CCN(C(=O)c3cc(S(=O)(=O)N4CCCCC4)c[nH]3)CC2)c(C)c1

Source: PubChem BioAssay AID624417 (National Center for Advancing Translational Sciences (NCATS), 2012)
